Laboratory results published in PMC12136788.
Positions count from the first letter of the chain named. The list shows a part of the results.

T1: UNK ZnF1-3 (human, UniProt Q9C0B0 31-174)
T1 sequence: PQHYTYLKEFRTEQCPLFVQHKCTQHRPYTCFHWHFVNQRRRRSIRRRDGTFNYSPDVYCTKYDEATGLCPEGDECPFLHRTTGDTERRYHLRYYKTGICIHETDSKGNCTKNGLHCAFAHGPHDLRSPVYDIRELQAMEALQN

B1: chr3:37053522:37053523:+_ENSG00000076242_ENST00000455445|hu_hu|motif|central (ssRNA)
RNA: GGGAGUUCUACAGUCCGACGAUCCAAAGAUGGAGCGAAUAUUGUCCACGGUUGAGGCAUUGGGUAGUGUCCUAACAUCAGCGGCUGUCUCUCCUUGUUUUUUAACUGAGAAACUAAUGCCUGCAUUGUGUACUGAAUACCUGCCAACAGAGGAUUGAGCAUCA
B2: 10122626_10122746_1606_CDS_ENSMUSG00000024290_ENSMUST00000067947|mouse|control|control (ssRNA)
RNA: GGGAGUUCUACAGUCCGACGAUCAAAUCCUACAAAAGGUAGCUGAUUGCCAACAAAAGCUUUUGGAAUAGGAAAUGUUUCUUCAUCUCCUUUAUCUUCUUCUAAGUCAUCAAAAUUACUAGUAUCAAUGUCACUACUUAAAUCCAACAGAGGAUUGAGCAUCA
B3: 26910399_26917107_1951_CDS_ENSG00000137055_ENST00000397292|human|control|control (ssRNA)
RNA: GGGAGUUCUACAGUCCGACGAUCCAUUGUUUUAGAUGCAGCUGAUCGGUAGGCACUAUUCCCUGUAAAUGGAUCAACUCCGGCCAUGGUAGUUCCCAUACUUGCAGAACCUGGUACAUAACGACCAGCACCUGUAAAAGGAUCCAACAGAGGAUUGAGCAUCA
B4: chr11:20202655:20202656:-_ENSMUSG00000020142_ENSMUST00000109594|mus_mus|FALSE|FALSE (ssRNA)
RNA: GGGAGUUCUACAGUCCGACGAUCAUAGACAUAAUUUGUAGUUUAGUUCCCCUUUAUCCAAACUCAGGUUUGCUUGGAGCUAAAAGCACACACAUACACACACACACUUGAUACAUAAAGUAUAUGUAAAUACAGAGGAAAAGACAACAGAGGAUUGAGCAUCA
B5: chr5:145543945:145543946:-_ENSG00000133706_ENST00000545646|hu_hu|hu_hu_hu_mus_True|8_58 (ssRNA)
RNA: GGGAGUUCUACAGUCCGACGAUCCUGAACGGCCAGUGGUGGGAAAUAAUCAAGCCAGUGCUCUGCUUCAGAAAACUUUACUAUCUCGUCAUCAGAGAGCCCAAGGGAUUUCAUAAUGUCCCACUGGUAUUUAGAAGAUCCUGCCAACAGAGGAUUGAGCAUCA
B6: chr11:95532483:95532484:+_ENSG00000166037_ENST00000540830|hu_hu|FALSE|FALSE (ssRNA)
RNA: GGGAGUUCUACAGUCCGACGAUCGCUGUUGCUUUCUGGAUAGGCAAGUGUAGGCUUACUUGGGGAGCGUCGUAGAUCACUAUUAAGGAAAGGCUUAUCCGAAGGAUAUACUACAUAUGGAGAUGAAGAAUGCCGAACCAUGCUCAACAGAGGAUUGAGCAUCA
B7: chr4:44140560:44140561:-_ENSMUSG00000035696_ENSMUST00000045793|mus_hu|motif|central (ssRNA)
RNA: GGGAGUUCUACAGUCCGACGAUCUAGAAGUAUUUCUGAUGCACUGACAACCCUAGGGGCAAACACAGUAUGCAAAACCCGGCUUGUAGGACUAGAUAGAGGCAACAAUGUCUCGCAAAGGGCAAAAUUGUGCUUCUGUGAAUUCAACAGAGGAUUGAGCAUCA
B8: chr1:135197953:135197954:+_ENSMUSG00000041757_ENSMUST00000038295|mus_mus|FALSE|FALSE (ssRNA)
RNA: GGGAGUUCUACAGUCCGACGAUCGAGCUGAUCCCAUCUACCAGUCUUUAAGGAGGAAGGGGCAGAUUUGGGGUGCUUGAACUAUGCAGAUAGGGGAUGUCAUGAAGGAGCACUUUCCAGAAGCCAGAGAGAGGCAAAAACAGGCAACAGAGGAUUGAGCAUCA
B9: chr2:172803269:172803270:+_ENSG00000128708_ENST00000264108|hu_mus|motif|central (ssRNA)
RNA: GGGAGUUCUACAGUCCGACGAUCGAAAGCAGUUUCAUCAUCCCCAAAGAGCUGAUGGGUAUAUUCAGGAAAGAAAGUUCGGAUGUCAUUCUCAAGAUCUUCAGGAAAACGAACUAGUUUCAGCUCGAUUGCUGUGUUGGUGUUCAACAGAGGAUUGAGCAUCA
B10: chr16:94651144:94651145:+_ENSMUSG00000040785_ENSMUST00000117648|mus_hu|mus_mus_mus_hu_True|98_98 (ssRNA)
RNA: GGGAGUUCUACAGUCCGACGAUCAUUUUCUUGAAUCAAGUGACCGAUAACAUAGUCCACUGCUUCAUUUAGAAAAUUUCUGCUAGAAAAACAGGUUGUAUAGUCUUCUGUGCUCAAAACUUUCCAAGAAAGCAAUUCUUUGAGCAACAGAGGAUUGAGCAUCA
B11: 36537775_36539393_140_3pUTR_ENSMUSG00000043671_ENSMUST00000051377|mouse|control|control (ssRNA)
RNA: GGGAGUUCUACAGUCCGACGAUCCUGCGGCCUCAGCAGUCCUCAGGGGCGGCUCGGGUUGGCAAAGAAGCACCCCGAGCACCCAGGCCUUAGGGACGCGCCCACUUCACGGGCUACAGCGAGGUGAAGACUAGGAGGACCCAGCAACAGAGGAUUGAGCAUCA
B12: chr1:46159212:46159213:+_ENSG00000159596_ENST00000372025|hu_mus|hu_hu_hu_mus_True|88_108 (ssRNA)
RNA: GGGAGUUCUACAGUCCGACGAUCUCUGAUCCCACCCAAGAAAGCUAGGAAACUGGCUCCAUAAGCCAUCUGAGUGAAAGCUAGGACGGGGAUAUAAGACUUUGUUAUUACCAUGAGAAGUGGGGGAGCAGUAAAGGGGAUUAACAACAGAGGAUUGAGCAUCA
B13: chr4:128450444:128450445:-_ENSMUSG00000028799_ENSMUST00000106072|mus_hu|FALSE|FALSE (ssRNA)
RNA: GGGAGUUCUACAGUCCGACGAUCGGGUGUUAACAGUAUGUAUAACAGCGUAUUUACAGGGAGUAACAUGCGGACAAAAAGCUACAAUACUGAGUAUCAGACGACGCAAGUCAAACAAAGGGCCGGGGGUGGGGGCAGAGAACCCAACAGAGGAUUGAGCAUCA
B14: chr5:145543945:145543946:-_ENSG00000133706_ENST00000545646|hu_hu|hu_hu_hu_mus_True|68_78 (ssRNA)
RNA: B5 RNA with G57A, C60U, C75U, U78C, C84G, U129C

What follows are binders tested against T1, UNK ZnF1-3 (assay: nsRBNS (natural sequence RNA bind-n-seq); RBNS binding buffer (assumed for nsRBNS): 25 mM Tris pH 7.5, 150 mM KCl, 3 mM MgCl2, 0.01% Triton X-100, 500 ug/ml BSA, 20 U/ml SUPERase-In, 4 C; UNK is unkempt and MSI1 is Musashi-1; names of the RNAs are library labels; protein concentration not given here; high values mean tight binding).
For B1, the binding signal was 0.474 enrichment R.
B2 was tested, and the binding signal was 0.794 enrichment R.
B3 was tested, and the binding signal was 0.617 enrichment R.
With B4 the binding signal was 0.914 enrichment R.
Work on B5 yielded a binding signal of 1.27 enrichment R.
For B6, the binding signal was 1.39 enrichment R.
For B7, the binding signal was 0.966 enrichment R.
B8 showed a binding signal of 2.5 enrichment R.
For B9, the binding signal was 1.06 enrichment R.
B10 was tested, and the binding signal was 0.357 enrichment R.
B11 gave a binding signal of 0.663 enrichment R.
With B12 the binding signal was 1.11 enrichment R.
For B13, the binding signal was 1.85 enrichment R.
With B14 the binding signal was 1.31 enrichment R.
